{"source": "ChEMBL document CHEMBL4888484", "about": "“Replenishing the malaria drug discovery pipeline: Screening and hit evaluation of the MMV Hit Generation Library 1 (HGL1) against asexual blood stage Plasmodium falciparum ,using a nano luciferase reporter read-out” (2022)", "note": "Screen size: about 150,000 compounds; about 540 (0.36%) showed an effect of 50% or more. The list shows a part of the results.", "data": [{"tested_on": "Plasmodium falciparum", "test": "Primary screen in NF54 nanoGlo assay, in single point, at 2uM, 72h; a lower Z score goes with more inhibition", "assay_type": "functional, Erythrocyte", "details": "timepoint 72 hour", "units": {"% Inhibition": "%"}, "values": [{"smiles": "CCOC(=O)c1nc2ccccc2nc1N1CCC2(C1)OCCO2", "% Inhibition": -3, "Z score": 0.56}, {"smiles": "CCc1ncc(CNC(=O)c2cn(CC)nn2)o1", "% Inhibition": -11, "Z score": 1.51}, {"smiles": "O=C(N[C@@H](Cc1ccccc1)C(=O)NC1CCCNC1=O)OCc1ccccc1", "note": "(stereo not given in full)", "% Inhibition": -4, "Z score": 0.76}, {"smiles": "COc1cc([C@H]2C(=O)N(C3CCCCCC3)CC(=O)N2C2CC2)ccc1OC(C)C", "% Inhibition": 6, "Z score": -1.08}, {"smiles": "Cc1ccc(NC(=O)CCc2c(C)nn(-c3cc(N4CCOCC4)ncn3)c2C)c(Cl)c1", "% Inhibition": -8, "Z score": 1.67}, {"smiles": "C[C@H]1C(=O)NCCCN1C(=O)c1cc(C2CC2)on1", "% Inhibition": -2, "Z score": 0.27}, {"smiles": "CCOC(=O)c1cc(CN2CCS(=O)(=O)[C@@H](C)C2)[nH]c1C", "% Inhibition": 4, "Z score": -0.53}, {"smiles": "Cc1cc(C(=O)NCc2nnc3n2CCOC3)oc1Br", "% Inhibition": -6, "Z score": 0.84}, {"smiles": "CC(C)(C)CN1C[C@]23C=C[C@H](O2)C(C(=O)N2CCS(=O)(=O)CC2)C3C1=O", "note": "(stereo not given in full)", "% Inhibition": -2, "Z score": 0.31}, {"smiles": "CCNc1ncc(C(=O)NCCOc2ccc(CC#N)cc2)s1", "% Inhibition": -1, "Z score": 0.14}, {"smiles": "Cc1cccc(NC(=O)N2CCCCC[C@H]2c2nc(-c3ccccc3)no2)c1", "% Inhibition": -2, "Z score": 0.44}, {"smiles": "CN=C(NCc1noc(C)n1)N(C)Cc1cnn(-c2ccccc2)c1", "% Inhibition": 7, "Z score": -1.13}, {"smiles": "O=C(c1cc(-c2ccc(Cl)s2)nc2ccccc12)n1nnc2ccccc21", "% Inhibition": -7, "Z score": 0.94}, {"smiles": "N#Cc1cccc(-c2ccc3ncnc(NCCO)c3c2)c1", "% Inhibition": -2, "Z score": 0.21}, {"smiles": "COc1ccc(CN2CCN(c3cccc4c3C(=O)N(C[C@H]3CCCO3)C4=O)CC2)c(OC)c1C", "% Inhibition": 5, "Z score": -0.6}, {"smiles": "CC1CCN(C(=O)c2ccc(-c3ccc(N4CCCC4)nn3)cc2)CC1", "% Inhibition": -9, "Z score": 1.34}, {"smiles": "CN1CCN(Cc2ccccc2OCCO)C[C@H]1c1ccccc1", "% Inhibition": -13, "Z score": 1.98}, {"smiles": "Cc1ccccc1NS(=O)(=O)c1ccc(-c2[nH]ncc2C(=O)N(C)C)o1", "% Inhibition": -4, "Z score": 0.44}, {"smiles": "O=C(CCc1cccc2ccccc12)Nc1cccnc1", "% Inhibition": -6, "Z score": 1.11}, {"smiles": "COc1ccc(C(=O)N[C@H](c2nnc3n2CCNCC3)C(C)C)cc1", "% Inhibition": 11, "Z score": -1.94}, {"smiles": "NS(=O)(=O)c1ccc(F)c(-n2nc(CC3CC3)nc2-c2cnccn2)c1", "% Inhibition": 1, "Z score": -0.12}, {"smiles": "Cc1nnc(CN2Cc3ccccc3S2(=O)=O)s1", "% Inhibition": -15, "Z score": 2.19}, {"smiles": "O=C(NC[C@](O)(c1ccoc1)c1ccco1)c1c(F)cccc1F", "% Inhibition": -5, "Z score": 0.91}, {"smiles": "CCCNC(=O)Nc1nn(-c2cccc(F)c2)c2cccc(N3CCOCC3)c12", "% Inhibition": -11, "Z score": 1.4}, {"smiles": "O=C1NCCN2CCN(Cc3ccc4c(c3)CCO4)CC[C@@H]12", "% Inhibition": 8, "Z score": -1.53}, {"smiles": "Cc1ccc(N2CCN(c3ccc(C)cc3)C2c2ccc3c(c2)OCO3)cc1", "% Inhibition": -8, "Z score": 1.05}, {"smiles": "Cc1ncsc1CCC(=O)N1CCN(CC2CC2)[C@@H]2CS(=O)(=O)C[C@@H]21", "% Inhibition": -14, "Z score": 1.8}, {"smiles": "Cc1ccc(C)c(-n2nc(CC(N)=O)nc2[C@H](O)C2CCCCC2)c1", "% Inhibition": -8, "Z score": 1.08}, {"smiles": "Cc1ccc2c(c1)c(=O)n(C(C)(C)C)n2CC(=O)Nc1ccc(Cl)cc1F", "% Inhibition": -4, "Z score": 0.54}, {"smiles": "CC(NC(=O)N1CCCC1c1cccs1)C1CCCO1", "note": "(stereo not given)", "% Inhibition": -3, "Z score": 0.4}, {"smiles": "Cc1cc(CN(C)Cc2cc(Cl)ccc2F)on1", "% Inhibition": -9, "Z score": 1.37}, {"smiles": "O=C(Nc1cccnc1)c1ccc(S(=O)(=O)NC2CC2)cc1", "% Inhibition": -10, "Z score": 0.86}, {"smiles": "C[C@](O)(CNC1CCN(OCc2ccccc2)CC1)c1ccsc1", "% Inhibition": -7, "Z score": 1.18}, {"smiles": "O=C(CCc1c[nH]cn1)N1CC[C@H](c2ccnc(-c3ccncc3)c2)C1", "% Inhibition": -5, "Z score": 0.9}, {"smiles": "Nc1ccc2ncnc3c2c1C(=O)c1ccccc1-3", "% Inhibition": -1, "Z score": 0.23}, {"smiles": "CS(=O)(=O)Nc1cccc(Oc2ncccc2C(=O)NC2CC2)c1", "% Inhibition": 3, "Z score": -0.59}, {"smiles": "CO[C@H]1CCCN(Cc2[nH]c(=O)[nH]c2C(=O)O)C1", "% Inhibition": -10, "Z score": 1.02}, {"smiles": "CN1CCN(C(=O)Cn2ccc(NC(=O)Cc3cccs3)n2)CC1", "% Inhibition": 1, "Z score": -0.16}, {"smiles": "CCOC[C@H]1CCCN(C(=O)NCc2coc3ccccc23)C1", "% Inhibition": 10, "Z score": -1.82}, {"smiles": "Cc1ccc(C2=NC3(CCN(Cc4ccccc4)CC3)N[C@H](c3cc(Cl)ccc3O)C2)cc1", "% Inhibition": 9, "Z score": -0.98}, {"smiles": "COc1cc2c(cc1-c1nccn1Cc1noc(C(C)C)n1)OCO2", "% Inhibition": 5, "Z score": -0.45}, {"smiles": "Fc1cc(Br)cc2c1CCN(c1ncnc3nc[nH]c13)C2", "% Inhibition": 7, "Z score": -1.16}, {"smiles": "NC(=O)c1ncn(C2CCCN(C(=O)NCCC3CC4CCC3C4)C2)n1", "note": "(stereo not given)", "% Inhibition": -20, "Z score": 2.86}, {"smiles": "O=C(Nc1cccc2cccnc12)c1csc2c1CCCC2", "% Inhibition": -16, "Z score": 2.18}, {"smiles": "O=C(c1ccc2c(c1)OCO2)C1[C@@H](c2ccc(Cl)cc2)C2CCCN2[C@@]12C(=O)Nc1ccccc12", "note": "(stereo not given in full)", "% Inhibition": -4, "Z score": 0.55}, {"smiles": "CNC(=O)N1CCCC(C(F)(F)F)C1C", "note": "(stereo not given)", "% Inhibition": 3, "Z score": -0.3}, {"smiles": "COc1cccc(OCc2n[nH]c(C[C@H](C)n3cccn3)n2)c1", "% Inhibition": -14, "Z score": 1.62}, {"smiles": "Cc1cc(C)n(CCNC(=O)c2cn[nH]c2)c(=O)n1", "% Inhibition": -5, "Z score": 0.73}, {"smiles": "CC1CC(C)CN(C(=O)CCc2nnc3ccc(N4CCOCC4)nn23)C1", "note": "(stereo not given)", "% Inhibition": 3, "Z score": -0.33}, {"smiles": "O=C1CCCCN1CCCC(=O)N1CCO[C@@H](CC2CCCCC2)C1", "% Inhibition": 13, "Z score": -1.69}, {"smiles": "Cc1cc(O[C@H]2CCN(C(=O)Cn3cnc4ccccc4c3=O)C2)nc(C)n1", "% Inhibition": -3, "Z score": 0.51}, {"smiles": "Cc1cccc2nc(Cn3cnc(C#N)c3C#N)cn12", "% Inhibition": -3, "Z score": 0.61}, {"smiles": "Cc1noc(C(C)C)c1C(=O)N1CC(N2CCNC2=O)C1", "% Inhibition": -3, "Z score": 0.4}, {"smiles": "Cc1cc(CNC(=O)N(C)CC2(C)COC2)n[nH]1", "% Inhibition": 2, "Z score": -0.32}, {"smiles": "Cc1cccc(OC2CN(c3cc([C@H]4CCOC4)nc(NCCO)n3)C2)c1", "% Inhibition": -2, "Z score": 0.26}, {"smiles": "CN(Cc1csc(-c2ccccc2)n1)S(=O)(=O)N1CCCC1", "% Inhibition": -12, "Z score": 2.24}, {"smiles": "N#CCCN(Cc1ccco1)C(=O)[C@@H]1Cc2cc(Cl)ccc2O1", "% Inhibition": -4, "Z score": 0.36}, {"smiles": "CC(C)C[C@@]1(C)CC(=O)N(CC(=O)NCCc2ccc(F)cc2)C1=O", "% Inhibition": 2, "Z score": -0.26}, {"smiles": "O=C1[C@@H]2CCCCN2C(=O)N1Cc1coc(-c2ccc(F)cc2)n1", "% Inhibition": -1, "Z score": 0.08}, {"smiles": "O=C(O)[C@@H]1CN(C(=O)Cc2cn3c(n2)CCCC3)C[C@H]1c1ccc(Cl)cc1", "% Inhibition": -14, "Z score": 1.51}, {"smiles": "COc1ncc(NCc2c[nH]nc2C)cc1C#N", "% Inhibition": 1, "Z score": -0.1}, {"smiles": "O=C(CCCOc1ccc(F)cc1F)Nc1nnn[nH]1", "% Inhibition": 8, "Z score": -0.97}, {"smiles": "NS(=O)(=O)c1ccccc1CCCOCc1ccccc1", "% Inhibition": -8, "Z score": 1.15}, {"smiles": "CC1CN(CC(=O)NCC2CCCO2)c2ccc(F)cc2O1", "note": "(stereo not given)", "% Inhibition": -10, "Z score": 1.19}, {"smiles": "Cc1nsc2ncn(C[C@H](O)COCc3ccco3)c(=O)c12", "% Inhibition": 38, "Z score": -5.48}, {"smiles": "CCCNC(=O)NC1CCC(Nc2nc(C3CCCCC3)nc3c2c(C)nn3-c2ccccc2)CC1", "note": "(stereo not given)", "% Inhibition": 5, "Z score": -0.77}, {"smiles": "COC(=O)[C@](C)(N)c1ccc(OC)cc1", "% Inhibition": 8, "Z score": -0.78}, {"smiles": "C=CCC(=O)N1CC[C@@]2(CCCN(Cc3ccc(F)c(F)c3)C2=O)C1", "% Inhibition": -6, "Z score": 0.63}, {"smiles": "COc1cc(F)c([C@H](C)NC(=O)N(C)Cc2ccco2)cc1OC", "% Inhibition": 44, "Z score": -8.22}, {"smiles": "COc1cccc(C(=O)N(Cc2c(-c3ccccc3)noc2N2CCC(C)CC2)CC(C)C)c1", "% Inhibition": 1, "Z score": -0.2}, {"smiles": "CCC[C@@]1(C2CCN(C(=O)c3ccc(C)cc3)CC2)NC(=O)N(Cc2ccco2)C1=O", "% Inhibition": -26, "Z score": 3.98}, {"smiles": "O=C(Nc1ccc(N2CCCC2=O)cc1)c1ccco1", "% Inhibition": -5, "Z score": 0.43}, {"smiles": "CCn1cccc(NC(=O)Cc2ccc(OCCOC)cc2)c1=O", "% Inhibition": -3, "Z score": 0.45}, {"smiles": "CC(=O)[C@@H]1C[C@H](CC(=O)N2C3CCC2CC(c2ccnn2C)C3)C1(C)C", "note": "(stereo not given in full)", "% Inhibition": -6, "Z score": 1.15}, {"smiles": "N#Cc1cncc(N2CCC[C@H]2C2CCC2)n1", "% Inhibition": 2, "Z score": -0.29}, {"smiles": "Cn1nncc1C(=O)N[C@H]1CCCc2c(F)cc(Cl)cc21", "% Inhibition": -17, "Z score": 2.16}, {"smiles": "Cc1noc(C)c1S(=O)(=O)N[C@@H](C)C(=O)Nc1ccc(N2CCOCC2)nc1", "% Inhibition": 34, "Z score": -3.76}, {"smiles": "Cc1cccn(CC(=O)N(Cc2ccco2)c2ccc(F)cc2)c1=O", "% Inhibition": 4, "Z score": -0.44}, {"smiles": "CC(C)N(C)C(=O)C(=O)Nc1cccc2nonc12", "% Inhibition": -12, "Z score": 1.59}, {"smiles": "Cc1[nH]nc(CCC(=O)NC(c2ccccc2)[C@H]2C[C@@H](O)C2)c1C", "note": "(stereo not given in full)", "% Inhibition": -7, "Z score": 1.14}, {"smiles": "Cc1cc(C(=O)N2C3C=C(c4ccccc4)CC2CC3)no1", "note": "(stereo not given)", "% Inhibition": -9, "Z score": 0.84}, {"smiles": "CC(NCCc1cccs1)C(C)n1cccn1", "note": "(stereo not given)", "% Inhibition": -4, "Z score": 0.43}, {"smiles": "CC1(C)C[C@@]1(NC(=O)Nc1ccnnc1)c1ccccc1", "% Inhibition": 11, "Z score": -1.31}, {"smiles": "COc1ccc([C@@H]2C=C(c3ccc(Cl)cc3)N=C3NN=NN32)cc1", "% Inhibition": 3, "Z score": -0.35}, {"smiles": "Cc1cc(N2CC[C@@](O)(CN(C)C)C2)nc(C2CC2)n1", "% Inhibition": -10, "Z score": 1.9}]}]}
